{"source": "PubChem BioAssay AID485294", "about": "(National Center for Advancing Translational Sciences (NCATS), 2010)", "note": "The campaign covered roughly 370,000 compounds. About 150 (0.041%) were called active. This list was built around the results that the source calls inconclusive (neither active nor inactive); the mix of calls is not that of the screen. The call rests on the fitted dose curve; in most records, active means well fitted inhibition curve with a large enough effect; inconclusive means small, poorly fitted or top-dose-only effect; inactive means flat fitted curve, though single readings scatter. Potencies of inconclusive entries are left out as doubtful fits. Potency means the concentration at half of the fitted maximal effect; tags describe the fitted curve by direction and shape."}
{"biological_target": "Beta-lactamase (Escherichia coli (strain K12)) (UniProt P00811)", "sequence (P00811 whole entry, looked up)": "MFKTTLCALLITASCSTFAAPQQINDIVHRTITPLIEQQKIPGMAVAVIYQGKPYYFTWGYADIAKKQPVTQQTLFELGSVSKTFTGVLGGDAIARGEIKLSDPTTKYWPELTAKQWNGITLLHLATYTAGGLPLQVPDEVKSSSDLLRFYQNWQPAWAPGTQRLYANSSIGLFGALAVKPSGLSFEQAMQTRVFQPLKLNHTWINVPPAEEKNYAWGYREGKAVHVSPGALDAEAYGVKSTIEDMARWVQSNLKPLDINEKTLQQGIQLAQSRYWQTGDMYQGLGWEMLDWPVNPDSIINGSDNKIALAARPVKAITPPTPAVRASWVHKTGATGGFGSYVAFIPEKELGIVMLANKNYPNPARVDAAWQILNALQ", "assay": "qHTS Inhibitors of AmpC Beta-Lactamase (assay with detergent); further: nearly all actives have a fitted effect of over 25% in size", "conditions": "AmpC hydrolysis of nitrocefin, absorbance 480 nm, 0.01% Triton; series mostly up to 114 µM", "how_it_was_run": "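20 mM phosphate pH 7.0 + 0.01% (detergent screen) or 0.0001% Triton X-100; 5.3 nM AmpC reagent; cpd preinc 15 min RT; nitrocefin (800 uM stock) to start; A480 q20 s × 4 min; Activity was normalised to no-enzyme and no-compound control wells.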"}
{"smiles": "O=C(Nc1ccc(F)cc1Cl)C1=COCCO1", "Potency": "inconclusive [inhibitor, partial curve, poor fit]"}
{"smiles": "CN(C)C(CNC(=O)c1ccc(C(F)(F)F)cc1)c1ccco1", "note": "(stereo unspecified)", "Potency": "inactive"}
{"smiles": "CCc1nnc(NC(=O)CCNC(=O)c2ccccc2Cl)s1", "Potency": "inconclusive [inhibitor, full curve, poor fit]"}
{"smiles": "O=C(O)c1ccc(NS(=O)(=O)c2cccc3cccnc23)cc1", "Potency": "inconclusive [inhibitor, full curve, poor fit]"}
{"smiles": "COc1ccc(C(=O)NC(=S)Nc2ccccc2N2CCOCC2)cc1Br", "Potency": "inconclusive [inhibitor, full curve]"}
{"smiles": "Cc1ccc(NC(=O)CN2C(=O)C3CCCCN3C(=O)c3ccccc32)cc1", "note": "(stereo unspecified)", "Potency": "inconclusive [inhibitor, single point]"}
{"smiles": "CCOc1ccc(-n2nnc3c(=O)n(C/C=C/c4ccccc4)cnc32)cc1", "Potency": "inconclusive [inhibitor, full curve, poor fit]"}
{"smiles": "Cc1ccc(C2=NS(=O)(=O)N(C)C(C(=O)Nc3ccc4c(c3)OCO4)=C2)cc1", "Potency": "inconclusive [inhibitor, partial curve]"}
{"smiles": "Cc1cc2c(cc1S(=O)(=O)NCc1ccccc1)NC(=O)CO2", "Potency": "inconclusive [inhibitor, full curve, poor fit]"}
{"smiles": "CC(=O)c1c(C)[nH]c(C(=O)Nc2ccc3c(c2)OCCO3)c1C", "Potency": "inactive"}
{"smiles": "O=C(NCCc1ccc(Cl)cc1)c1c2c(nc3ccccc13)C(=O)N(C1CCCCC1)C2", "Potency": "inactive"}
{"smiles": "C=CCNc1nc2c(c(=O)n(C)c(=O)n2C)n1Cc1ccc(F)cc1", "Potency": "inconclusive [inhibitor, full curve]"}
{"smiles": "O=C(Nc1cc(Cl)ccc1F)c1ccc(-n2cncn2)c([N+](=O)[O-])c1", "Potency": "inconclusive [inhibitor, full curve, poor fit]"}
{"smiles": "CC1(C)NC(C(=O)O)Cc2c1[nH]c1ccccc21", "note": "(stereo unspecified)", "Potency": "inconclusive [inhibitor, single point]"}
{"smiles": "Clc1cccc(N2CCN(Cc3nc(-c4ccccc4)no3)CC2)c1", "Potency": "inconclusive [inhibitor, partial curve]"}
{"smiles": "O=C(CCn1c(=O)oc2ccccc21)NC1=NCCS1", "Potency": "inactive"}
{"smiles": "CCOC(=O)c1ccc(NC(=O)CN2CCN(CCN=CC3=C(O)CC(C)(C)CC3=O)CC2)cc1", "Potency": "inconclusive [inhibitor, single point]"}
{"smiles": "O=C(Nc1ccc(C(F)(F)F)cc1)c1ccc2nc[nH]c2c1", "Potency": "inconclusive [inhibitor, partial curve, poor fit]"}
{"smiles": "O=C(c1ccc2c(c1)OCCO2)N(c1ccccn1)C1CCCCC1", "Potency": "inconclusive [inhibitor, full curve, poor fit]"}
{"smiles": "COc1cc(C(=O)NNC(=O)CN2C(=O)NC(C)(c3ccc(C)cc3)C2=O)cc(OC)c1OC", "note": "(stereo unspecified)", "Potency": "inconclusive [inhibitor, full curve]"}
{"smiles": "CCCCOCP(=O)(CC)COCCCC", "Potency": "inconclusive [inhibitor, full curve, poor fit]"}
{"smiles": "CC(=O)NC(CCS(C)(=O)=O)C(=O)Nc1ccccc1", "note": "(stereo unspecified)", "Potency": "inconclusive [inhibitor, full curve, poor fit]"}
{"smiles": "CSCCC(NC(=O)c1occc1C)C(=O)O", "note": "(stereo unspecified)", "Potency": "inconclusive [inhibitor, full curve, poor fit]"}
{"smiles": "Cc1nn(-c2cccc(C(=O)O)c2)c(C)c1[N+](=O)[O-]", "Potency": "inactive"}
{"smiles": "COc1ccc(C(CC(=O)N2CCCCC2)NC(=O)C(F)(F)F)cc1", "note": "(stereo unspecified)", "Potency": "inconclusive [inhibitor, full curve, poor fit]"}
{"smiles": "CCn1c(SCC(=O)Nc2ccc(C(=O)OC)cc2)nnc1-c1cccs1", "Potency": "inconclusive [inhibitor, partial curve]"}
{"smiles": "Cc1ccc(N(Cc2ccc(C(=O)Nc3c(C)n(C)n(-c4ccccc4)c3=O)cc2)S(C)(=O)=O)cc1C", "Potency": "inconclusive [inhibitor, full curve]"}
{"smiles": "Cc1cc(NC(=O)/C=C/c2ccc(Br)cc2)no1", "Potency": "inconclusive [inhibitor, full curve, poor fit]"}
{"smiles": "O=C(CCC1CCCC1)NNC(=O)c1ccc(F)cc1", "Potency": "inconclusive [inhibitor, partial curve, poor fit]"}
{"smiles": "Cc1ccc(OCCC(=O)OCC(=O)Nc2ccc3[nH]c(=O)[nH]c3c2)cc1", "Potency": "inconclusive [inhibitor, full curve, poor fit]"}
{"smiles": "COc1ccc(CNC(=O)CCC(=O)N2C[C@H]3C[C@H](C2)c2cccc(=O)n2C3)cc1OC", "Potency": "inconclusive [inhibitor, full curve]"}
{"smiles": "O=C(c1ccc(F)cc1F)N(Cc1ccccn1)Cc1ccco1", "Potency": "inconclusive [inhibitor, single point]"}
{"smiles": "CC1CN(C(=O)/C=C/c2ccc([N+](=O)[O-])s2)CC(C)O1", "note": "(stereo unspecified)", "Potency": "inconclusive [inhibitor, full curve, poor fit]"}
{"smiles": "COc1ccc(-c2csc(Nc3ncccc3C)n2)cc1OC", "Potency": "inconclusive [inhibitor, full curve]"}
{"smiles": "CC(/C=N/NC(=O)CSc1nc(C)cc(C)n1)=C\\c1ccccc1", "Potency": "inactive"}
{"smiles": "CC1=NOC(=O)/C1=C/c1ccc(-c2ccc(Cl)cc2)o1", "Potency": "inconclusive [inhibitor, single point]"}
{"smiles": "Cc1ccc(OCC(O)Cn2nc(C)cc2C)cc1", "note": "(stereo unspecified)", "Potency": "inconclusive [inhibitor, full curve]"}
{"smiles": "CN(C(=O)COc1ccccc1C(=O)NCCc1ccccc1)c1ccccc1", "Potency": "inconclusive [inhibitor, partial curve, poor fit]"}
{"smiles": "O=C1c2ccccc2C(=O)C1c1ccc(Br)cc1", "Potency": "inactive"}
{"smiles": "CC1CC(C)CN(S(=O)(=O)c2ccc(C(=O)NN3CCOCC3)cc2)C1", "note": "(stereo unspecified)", "Potency": "inconclusive [inhibitor, single point]"}
{"smiles": "CCC(c1nnnn1C1CCCC1)N1CCN(Cc2ccccc2)CC1", "note": "(stereo unspecified)", "Potency": "inconclusive [inhibitor, partial curve, poor fit]"}
